Results: the supplement of paper PMC3334620
Whole data set: some 33,000 sequences, median “E-score (-0.5 to 0.5)” near -0.01, cut for the highest 2% near 0.26. Some of the results follow.

Each sequence was assayed against Ste12 (UniProt P13574) (assay: PBM E-score (8-mer binding enrichment) (E-score (-0.5 to 0.5)); higher = stronger / more preferred TF binding; most listed sequences are background and not binding sites). Conditions: protein concentration: 200 nM; construct: GST-DNA-binding domain.
In short: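 PURExpress in vitro transcription/translation supplied GST-tagged yeast transcription factors, either full-length or DNA-binding domain. Applied at about 100-200 nM to universal all-10-mer Agilent arrays double-stranded by primer extension, the bound protein was detected with fluorescent anti-GST. E-scores, modified Wilcoxon-Mann-Whitney statistics, were given by the Universal PBM Analysis Suite to ungapped eight-base words pooled with their reverse complements after masliner normalisation.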
TAAAGGGA was tested, and the “PBM E-score” value was -0.051.
For CTGCGATA, the “PBM E-score” value was -0.158.
In the case of CCTTTTAA, the “PBM E-score” value is reported as 0.0649.
AAGAGCCA was tested, and the “PBM E-score” value was 0.0885.
For GACACATC, the “PBM E-score” value was 0.0098.
With CCAGGAGC the “PBM E-score” value was -0.093.
With GACACTCC the “PBM E-score” value was 0.0388.
GTATTGAC was tested, and the “PBM E-score” value was -0.0665.
For ACGACCGA, the “PBM E-score” value was -0.00584.
GGGGAAAC was tested, and the “PBM E-score” value was 0.159.
With ATCCAATG the “PBM E-score” value was -0.165.
CTCATGGA was tested, and the “PBM E-score” value was -0.0927.
For GGGATGTA, the “PBM E-score” value was -0.0856.
For AAGAGACC, the “PBM E-score” value was -0.125.
In the case of CACTGATG, the “PBM E-score” value is reported as -0.124.
GCGCCGTA was tested, and the “PBM E-score” value was -0.0921.
With GACGGCCA the “PBM E-score” value was -0.153.
ATAAAGAG was tested, and the “PBM E-score” value was -0.0595.
In the case of AAACGTGT, the “PBM E-score” value is reported as 0.123.
With CAAAGGAG the “PBM E-score” value was -0.0623.
CATGACGA was tested, and the “PBM E-score” value was 0.076.
In the case of TCATGAGA, the “PBM E-score” value is reported as 0.0861.
For AATGGTCG, the “PBM E-score” value was 0.0135.
AAGGGGGT was tested, and the “PBM E-score” value was -0.235.
For CAGTCCTC, the “PBM E-score” value was -0.0957.
ATCCCGTC was tested, and the “PBM E-score” value was 0.0461.
ACGGTACA was tested, and the “PBM E-score” value was 0.0958.
With AGTAAATG the “PBM E-score” value was 0.114.
For AACGATCC, the “PBM E-score” value was -0.0207.
In the case of ACTTTGAG, the “PBM E-score” value is reported as 0.0952.
With CAAGCCGC the “PBM E-score” value was -0.0997.
For ATTGCATG, the “PBM E-score” value was 0.109.
GCTTTGTA was tested, and the “PBM E-score” value was 0.114.
In the case of CCCTGCCC, the “PBM E-score” value is reported as 0.0686.
In the case of AGATGGCG, the “PBM E-score” value is reported as 0.11.
For AGGTGTGG, the “PBM E-score” value was -0.0537.
For ACCTGTGA, the “PBM E-score” value was 0.131.
With GTCTAGGA the “PBM E-score” value was -0.0366.
For GTATTTTA, the “PBM E-score” value was 0.166.
For GGGAGCAC, the “PBM E-score” value was -0.254.
For CACCATAA, the “PBM E-score” value was 0.136.
ATCATTCG was tested, and the “PBM E-score” value was 0.142.
TACCAGCA was tested, and the “PBM E-score” value was -0.0129.
GAAGTTAC was tested, and the “PBM E-score” value was 0.0932.
For CCAATACA, the “PBM E-score” value was 0.0294.
With GATTGTAC the “PBM E-score” value was -0.172.
In the case of AGTAGCAG, the “PBM E-score” value is reported as 0.07.
With ATCGCGAG the “PBM E-score” value was 0.107.
In the case of CAAGCCCG, the “PBM E-score” value is reported as -0.104.
In the case of ACTTATAA, the “PBM E-score” value is reported as 0.175.
TCTGAGAA was tested, and the “PBM E-score” value was 0.0747.
For ATAAGTCA, the “PBM E-score” value was 0.197.
With ATTTGCTA the “PBM E-score” value was 0.0107.
In the case of AAAATTTT, the “PBM E-score” value is reported as 0.311.
AACCGTAG was tested, and the “PBM E-score” value was -0.156.
With GTAGAAAC the “PBM E-score” value was 0.0517.
AAGGTGAA was tested, and the “PBM E-score” value was 0.149.
AGTCAAGA was tested, and the “PBM E-score” value was -0.047.
In the case of AAAATCAC, the “PBM E-score” value is reported as 0.222.
In the case of CCCGCGAG, the “PBM E-score” value is reported as 0.119.
For CGAACCAA, the “PBM E-score” value was 0.0313.
AAAGTTCG was tested, and the “PBM E-score” value was -0.244.
For GGACTTAA, the “PBM E-score” value was -0.0538.
In the case of AGTCCTAT, the “PBM E-score” value is reported as -0.226.
CACACTGC was tested, and the “PBM E-score” value was -0.201.
For CAGTTCCA, the “PBM E-score” value was 0.0555.
For CGAAGCAA, the “PBM E-score” value was -0.0326.
ACCCAGTC was tested, and the “PBM E-score” value was -0.0677.
CCTCAACA was tested, and the “PBM E-score” value was 0.0274.
CGCTCAAG was tested, and the “PBM E-score” value was -0.188.
With TCCCAACA the “PBM E-score” value was 0.00266.
CATGTTCG was tested, and the “PBM E-score” value was 0.0721.
With GGGATGGA the “PBM E-score” value was -0.0192.
TAACGTGA was tested, and the “PBM E-score” value was -0.0707.
For CCGAAAGC, the “PBM E-score” value was -0.194.
In the case of GCAGACTA, the “PBM E-score” value is reported as -0.162.
AAGTGGCT was tested, and the “PBM E-score” value was -0.0554.
For CGTCCCTC, the “PBM E-score” value was -0.0466.
With CCGTTTCC the “PBM E-score” value was 0.139.
For AGCCACTC, the “PBM E-score” value was -0.103.
GGCATAGA was tested, and the “PBM E-score” value was 0.0282.
GATGTTAC was tested, and the “PBM E-score” value was 0.0919.
In the case of AAGTAGTC, the “PBM E-score” value is reported as 0.0527.
For CAAGGCCG, the “PBM E-score” value was -0.134.
TCAGAGGA was tested, and the “PBM E-score” value was -0.0615.
With CGCTGCAG the “PBM E-score” value was -0.072.
